# Reference: PubChem BioAssay AID488969 (Vanderbilt High Throughput Screening Facility, 2010)
# In all, about 110,000 compounds were measured (“z-score”: median about -0.1, highest 2% from about 2 on). Some of the results follow.
# Molecular target: Metabotropic glutamate receptor 8 (Rattus norvegicus) (UniProt P70579)
# Assay: mGluR8 Gi/Go-coupled signaling modulation – cell-based, rat, thallium flux, HTS, primary screen (AID 488969)
# Settings: HEK293 rat mGluR8, GIRK (G protein-gated inwardly rectifying potassium channel) thallium flux, FluoZin2; at 10 µM; stronger effect = higher value; submaximal glutamate (EC20) added with thallium
# Sequence of UniProt P70579 (P70579 whole entry, looked up): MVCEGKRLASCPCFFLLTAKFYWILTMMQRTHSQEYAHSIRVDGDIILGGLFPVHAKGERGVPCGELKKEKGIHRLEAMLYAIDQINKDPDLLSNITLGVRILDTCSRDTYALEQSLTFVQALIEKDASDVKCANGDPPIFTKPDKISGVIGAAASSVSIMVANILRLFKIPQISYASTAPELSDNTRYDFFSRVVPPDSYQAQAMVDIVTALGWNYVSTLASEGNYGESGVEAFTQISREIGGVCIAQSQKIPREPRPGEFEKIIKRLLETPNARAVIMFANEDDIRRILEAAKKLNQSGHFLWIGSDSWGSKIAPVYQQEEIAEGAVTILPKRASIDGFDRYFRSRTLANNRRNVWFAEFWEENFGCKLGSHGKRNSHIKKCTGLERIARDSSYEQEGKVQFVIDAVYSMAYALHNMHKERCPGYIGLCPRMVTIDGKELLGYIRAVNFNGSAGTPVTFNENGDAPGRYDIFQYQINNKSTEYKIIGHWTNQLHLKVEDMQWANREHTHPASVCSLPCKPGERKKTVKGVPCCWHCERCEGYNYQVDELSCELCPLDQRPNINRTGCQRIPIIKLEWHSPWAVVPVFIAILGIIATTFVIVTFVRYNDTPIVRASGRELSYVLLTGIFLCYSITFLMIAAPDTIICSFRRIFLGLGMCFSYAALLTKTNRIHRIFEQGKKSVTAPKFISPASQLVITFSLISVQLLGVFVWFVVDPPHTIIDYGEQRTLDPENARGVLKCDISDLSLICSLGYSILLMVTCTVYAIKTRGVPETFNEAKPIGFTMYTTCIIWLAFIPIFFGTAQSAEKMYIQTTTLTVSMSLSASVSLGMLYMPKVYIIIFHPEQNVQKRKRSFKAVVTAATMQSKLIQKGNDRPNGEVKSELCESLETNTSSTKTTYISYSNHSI
row,Compound,z-score
1,CCOC(=O)NC1(C(F)(F)F)C(=O)N(Cc2ccccn2)C2=C1C(=O)CC(C)(C)C2 (stereo not given),0.367
2,CCOC(=O)c1sc2nc(CC(=O)OC)nc(NCCN3CCOCC3)c2c1C,-0.0547
3,CCCCOC(=O)CSC(=S)N(C)Cc1cccs1,-0.535
4,CCOc1ccc(-n2cnnn2)cc1S(=O)(=O)N1CCCCC1,0.0187
5,C=C(C)CSc1nnc(-c2ccc(C)cc2)n1N,-0.212
6,CCOCCOC(=O)COC(=O)c1ccccc1NC(=O)c1ccccc1,-0.606
7,CC(OC(=O)CN(C)S(=O)(=O)c1ccc(Cl)cc1)C(=O)Nc1cccc(Cl)c1 (stereo not given),-0.0599
8,C=CCN1C(=O)CN=C1Nc1ccccc1,0.0847
9,CC(C)CN1C(=O)CC(Sc2ccccc2C(=O)O)C1=O (stereo not given),0.523
10,CSc1nc2ccccc2n1C(=O)NC1CCCCC1,-0.0515
11,COc1ccccc1-n1c(=O)oc2ccc(Cl)cc2c1=O,-0.0846
12,Clc1ccc(-c2cn3c(n2)-c2ccccc2C3)cc1Cl,-0.0744
13,CCC1=NN(C(=O)Cc2ccc(OC)c(OC)c2)C(O)(C(F)(F)F)C1 (stereo not given),0.0791
14,N#Cc1c(N)nc(SCC(=O)NCCc2ccccc2)c(C#N)c1-c1cccs1,-1.31
15,CS(=O)(=O)Nc1ccc2c(c1)nc1n2CCOC1,-0.149
16,Cc1ccc(-c2nn(-c3ccccc3)cc2/C=N/NC(=O)CSc2nnc(C)n2-c2ccccc2)cc1,-0.143
17,O=C(c1ccc2c(c1)[nH]c(=S)n1c3ccccc3nc21)N1CCN(c2ncccn2)CC1,0.89
18,Cc1onc(-c2c(Cl)cccc2Cl)c1C(=O)c1c[nH]c(C(=O)NC2CC2)c1,-0.52
19,S=C(NCc1ccco1)Nc1cccc(Cl)c1,0.899
20,C/C(=N/NC(=O)C1CC1(c1ccccc1)c1ccccc1)c1ccco1 (stereo not given),-0.0527
21,CCOc1ccccc1-c1cc(-c2ccccc2)nc2c1c(=O)n(C)c(=O)n2C,-0.409
22,O=C(COC(=O)c1ccccc1)Nc1cccc(S(=O)(=O)NC2=NCCCCC2)c1,0.132
23,CC(C)NC(=O)CSc1nc(Cc2cccs2)nc2ccccc12,0.317
24,COc1ccccc1N1CCN(C(=O)/C=C/c2ccc(C)cc2)CC1,-1.07

row,Compound,z-score
1,N#C/C(=C/c1cccs1)c1nc2ccccc2[nH]1,-0.0455
2,COC(/C=C/Nc1ccc(C)c(C)c1)=C(C#N)C#N,-0.179
3,COc1ccccc1N1CC(O)=C(c2nc3ccccc3s2)C1=N,0.0242
4,CCOC(=O)c1ccc2c(c1)N(CC)/C(=C\C=C1/SC(=S)N(CC)C1=O)N2CC,-2.55
5,COc1ccc(C2(C(=O)NC(C)C)CCCC2)cc1OC,0.579
6,c1ccc(-c2cnc(SCCN3CCOCC3)n2CC2CCCO2)cc1 (stereo not given),0.204
7,CC(C)(C)c1ccc(-c2nc(NCc3cccnc3)c3ccccc3n2)cc1,-0.213
8,CCn1c(SCC(=O)NNC(=O)c2ccccc2)nnc1-c1ccncc1,0.254
9,CCOC(=O)C(C(C)=O)=C1SC2CS(=O)(=O)CC2S1 (stereo not given),-0.38
10,CC(C)CNC(=S)NNC(=O)c1ccccc1OC(F)F,-0.091
11,COc1cccc(C(=O)N(CN2CCCC2=O)c2cccc(Cl)c2)c1,-0.159
12,CC(=O)Nc1ccc(C(=O)Nc2nc(-c3cc(C)n(Cc4ccccc4)c3C)cs2)cc1,-0.188
13,COc1cccc(-c2noc(C3CCCN(C(=O)Cc4ccccc4)C3)n2)c1 (stereo not given),-0.51
14,CCOC(=O)C1CCN(C(=O)CNS(=O)(=O)c2ccc(Br)s2)CC1,0.199
15,COC(=O)c1ccccc1NC(=O)c1cc(-c2cccs2)on1,0.00128
16,COC(=O)[C@H](Cc1ccccc1)NC(=O)Nc1ccc(C)cc1,-0.0415
17,CCc1ccc(NC(=O)c2ccnc(C(C)(C)C)c2)cc1,-0.442
18,Cc1cncn1CCc1nc2c3ccccc3nc(=S)n2[nH]1,-0.535
19,O=C(NCc1ccco1)Nc1ccc(Br)cc1Cl,-0.793
20,COc1cccc(N2CCN(C(=O)CN(c3ccc(C)cc3)S(=O)(=O)c3c(C)n[nH]c3C)CC2)c1,-0.164
21,CCOc1cc(C2NN=C(c3ccccc3)S2)ccc1OCc1ccc(F)cc1 (stereo not given),0.745
22,c1ccc(C(c2ccccc2)N2CCN(c3ccc4ccccc4n3)CC2)cc1,0.302
23,C=CCc1cc(/C=C2/NC(=O)N(CC)C2=O)cc(OCC)c1OCc1ccc(C(=O)O)cc1,-0.929
24,COCc1cc(C)nc2sc(C(=O)N3CCCCC3)c(N)c12,0.33

row,Compound,z-score
1,O=C(Nc1nnc(SCc2ccccc2Cl)s1)c1cccc([N+](=O)[O-])c1,-0.265
2,COc1cccc(-n2nnnc2SCC(=O)Nc2ccc(C(C)=O)cc2)c1,0.36
3,O=C(COc1ccccc1[N+](=O)[O-])OCC(=O)N1CCC(Cc2ccccc2)CC1,-0.405
4,CCOc1ccc(-c2onc(C(F)(F)F)c2-c2cscn2)c(O)c1,0.591
5,COc1ccc(/C=N/NS(=O)(=O)c2ccc(C)cc2)cc1OC(=O)c1ccccc1,-0.489
6,Cc1ccc(-c2c(C(=O)N3CCOCC3)oc(=O)c3ccccc23)cc1,-0.469
7,CCOC(=O)CN1C(=O)C(=O)c2cc(C)ccc21,1.48
8,CS(=O)(=O)N1CCC(C(=O)NCC2CCCO2)CC1 (stereo not given),0.122
9,CCn1c(=O)n(CCOC)c(=O)c2c3c(sc21)CCCC3,-0.826
10,CSc1nc(SCC(=O)NC(c2ccccc2)c2ccccc2)c2c3c(sc2n1)CN(C)CC3,-0.192
11,O=C1c2ccccc2C(=O)N1CCCOc1ccccc1,-1.34
12,O=C(CN1CCC(C(O)(c2ccccc2)c2ccccc2)CC1)Nc1ccccc1,0.347
13,CCCC(=O)NC(=S)Nc1ccc(NC(=O)C(C)C)c(OC)c1,0.343
14,Cc1cccc(C(=O)N/N=C/c2ccc3c(c2)OCO3)n1,-0.0578
15,CN1C(=O)CC(NNC(=O)c2ccc(Cl)cc2)C1=O (stereo not given),-0.0158
16,C=CCSc1nc(N(CC)CC)c2sccc2n1,-2.12
17,CN(Cc1ccccc1)c1nc2c(c(=O)[nH]c(=O)n2C)n1Cc1ccccc1Cl,0.126
18,N#CCCn1cc(C=C(C#N)C#N)c(-c2ccc(-c3ccccc3)cc2)n1,-0.227
19,CCOc1ccc(NC(=O)CN(C)S(=O)(=O)c2cccs2)cc1,-0.559
20,COC(=O)C1Sc2[nH]c(=O)sc2C2c3ccccc3OC(=O)C12 (stereo not given),-0.877
21,COC(=O)CCSc1cc(NCCOC(C)=O)c([N+](=O)[O-])c2nonc12,-0.0935
22,Cc1ccc(-c2ccc(=O)n(CC(=O)NCc3ccco3)n2)cc1,-0.117
